According to PubChem BioAssay (NCI):
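Five concentrations, 48 hours, 96-well plates. Abbreviation: GI50, concentration required for 50% inhibition of growth.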 A number of entries come with more than one value. The other results are left out here. An entry can have further records. For part of these data: Records of one sample usually come from different ranges of test concentrations, which the source does not state; some values may only mark the edge of a range. For part of these data: The values listed for one entry are repeats across runs, samples, wells, individuals or studies. What stands in brackets tells the records apart. Letters count within one entry.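 Definition used: TGI = concentration required for complete inhibition of growth.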

Key:
Assay in all cases: NCI anticancer screen, dose series, 48 h
[1] = system: SNB-78 CNS
[2] = system: CCRF-CEM leukemia
[3] = system: K-562 leukemia
[4] = system: LOX IMVI melanoma
[5] = system: HOP-92 NSCLC
[6] = system: EKVX NSCLC
[7] = system: TK-10 renal
[8] = system: OVCAR-4 ovarian
[9] = system: 786-0 renal
[10] = system: SF-295 CNS
[11] = system: M14 melanoma
[12] = system: MCF7 breast
[13] = system: CAKI-1 renal
[14] = system: BT-549 breast
[15] = system: A549 NSCLC
[16] = system: UACC-257 melanoma
[17] = system: HOP-62 NSCLC
[18] = system: MOLT-4 leukemia
[19] = system: HL-60(TB) leukemia
[20] = system: SNB-75 CNS
[21] = system: SR leukemia
[22] = system: SK-MEL-5 melanoma
[23] = system: COLO 205 colon
[24] = system: RPMI-8226 leukemia
[25] = system: SN12C renal
[26] = system: T-47D breast
[27] = system: UACC-62 melanoma
[28] = system: NCI/ADR-RES ovarian

`CCOC(=O)Nc1ccc2c(c1)N(C(=O)CCN(CC)CC)c1ccccc1S2` was tested, and the TGI [1] was 9.66 µM and 129 µM.
With `C=C1C(=O)OC2CC1C(OC(C)=O)C/C(C)=C/CC/C(C)=C\CCC2(C)O` (stereo not drawn) the TGI [2] was > 100 µM [sample A, 1 test] and 3.49 µM [sample B, mean of 2 tests], the TGI [3] was > 100 µM [sample A] and 9.78 µM [sample B] and the TGI [4] was > 100 µM [sample A] and 7.1 µM [sample B].
In the case of `COC(=O)[C@@H](C)C[C@H](Cc1ccccc1)NC(=O)c1csc([C@@H](C[C@H](C(C)C)N(C)C(=O)C2(NC(=O)[C@H]3CCCCN3C)CCC2)OC(C)=O)n1`, the TGI [5] was 57.2 nM and 6.79 µM, the GI50 [6] was 32.8 nM and > 25 µM and the GI50 [7] was 858 nM and 15.8 nM. The GI50 [8] was 10.2 nM and 909 nM and the GI50 [9] was 45.4 nM and 3.89 nM.
`O=C(/C=C/c1nnc2n(Cc3ccccc3)c(=O)c3c4c(sc3n12)CCCC4)c1ccccc1` was tested, and the GI50 [10] was 5.49 µM and > 100 µM, the GI50 [11] was 3.84 µM and > 100 µM and the GI50 [12] was 3.8 µM and > 100 µM. For the same compound, the TGI [9] was 3.23 µM and > 100 µM, the GI50 [13] was 3.3 µM and > 100 µM and the GI50 [14] was 1.96 µM and > 100 µM. The TGI [14] was 4.65 µM and > 100 µM, the GI50 [15] was 1.59 µM and > 100 µM and the TGI [15] was 7.58 µM and > 100 µM. The GI50 [16] was 36.2 nM and > 100 µM, the TGI [16] was 2.75 µM and > 100 µM and the GI50 [17] was 7.24 µM and > 100 µM.
For `O=C(/C=C/c1cccc(S(=O)(=O)Nc2ccccc2)c1)NO`, the GI50 [18] was 25.3 nM [sample A, mean of 3 tests] and 307 nM [sample B, mean of 4 tests], the GI50 [2] was < 20.8 nM [sample A, mean of 2 tests] and 257 nM [sample B, mean of 4 tests] and the GI50 [19] was < 44.6 nM [sample A, mean of 2 tests] and 591 nM [sample B, mean of 5 tests]. For the same compound, the GI50 [20] was 6.89 µM [sample A, mean of 2 tests] and 295 nM [sample B, mean of 3 tests], the GI50 [21] was < 15.9 nM [sample A, mean of 2 tests] and 196 nM [sample B, mean of 4 tests] and the GI50 [22] was 28.9 nM [sample A, mean of 3 tests] and 302 nM [sample B, mean of 5 tests]. For the same compound, the TGI [23] was 381 nM [sample A, mean of 2 tests] and 3.97 µM [sample B, mean of 4 tests], the TGI [24] was 1.39 µM [sample A, mean of 2 tests] and 47.7 µM [sample B, mean of 5 tests] and the TGI [25] was 4.77 µM [sample A, mean of 3 tests] and 71.5 µM [sample B, mean of 5 tests]. For the same compound, the TGI [26] was > 75.5 µM [sample A, mean of 2 tests] and 7.39 µM [sample B, mean of 5 tests], the GI50 [27] was < 19.6 nM [sample A, mean of 2 tests] and 296 nM [sample B, mean of 5 tests] and the GI50 [28] was < 22.3 nM [sample A, mean of 2 tests] and 241 nM [sample B, mean of 5 tests].
